Assay results: PubChem BioAssay AID1030 (National Center for Advancing Translational Sciences (NCATS), 2008)
About 16,000 (7.3%) of roughly 220,000 compounds were called active. This list was built around the results that the source calls inconclusive (neither active nor inactive); the mix of calls is not that of the screen. Calls follow the shape of the dose curve; as a rule, active = well fitted inhibition curve with a large enough effect (not every such curve was filed as active); inconclusive = small, poorly fitted or top-dose-only effect, or another doubt; inactive = no such curve, though single readings can be large or run the other way. No potency is given beside an inconclusive call; the fits are too rough.

Target: Aldehyde dehydrogenase 1A1 (Homo sapiens) (UniProt P00352)
Chain of UniProt P00352 (P00352 whole entry, looked up): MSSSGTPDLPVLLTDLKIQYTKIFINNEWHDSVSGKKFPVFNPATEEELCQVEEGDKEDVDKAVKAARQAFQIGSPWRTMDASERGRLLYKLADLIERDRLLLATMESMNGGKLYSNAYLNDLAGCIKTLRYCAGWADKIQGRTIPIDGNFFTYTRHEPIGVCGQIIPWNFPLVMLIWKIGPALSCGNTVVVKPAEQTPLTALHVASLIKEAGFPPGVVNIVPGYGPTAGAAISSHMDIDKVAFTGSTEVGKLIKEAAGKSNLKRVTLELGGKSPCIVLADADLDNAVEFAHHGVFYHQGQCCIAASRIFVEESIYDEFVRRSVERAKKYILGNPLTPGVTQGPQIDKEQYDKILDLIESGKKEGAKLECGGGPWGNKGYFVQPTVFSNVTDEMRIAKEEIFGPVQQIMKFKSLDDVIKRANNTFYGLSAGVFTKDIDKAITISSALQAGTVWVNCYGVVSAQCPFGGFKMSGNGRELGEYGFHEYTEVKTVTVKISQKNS
Assay: qHTS Assay for Inhibitors of Aldehyde Dehydrogenase 1 (ALDH1A1);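 as to activity, negative = inhibition: plate controls were no enzyme wells and a reference inhibitor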
Details: Purified ALDH1A1, NADH fluorescence, propionaldehyde substrate; series mostly up to 75.3 µM; activity, negative = inhibition: at the top concentration
Potency is read from the fitted curve at half-maximal effect; tags tell the direction and shape of the fitted curve.

| Compound | Potency | activity, negative = inhibition |
| --- | --- | --- |
| Cc1ccccc1-n1c(SCC(=O)N(C)C2CCS(=O)(=O)C2)nc2ccccc2c1=O (centres undefined) | inconclusive [inhibitor, single point] | – |
| O=C(NCCO)C(=O)c1c(-c2ccccc2)cc2ccccn12 | – | inactive: -0.0348% |
| COc1ccc(C(C)=O)cc1COC(=O)c1ccc(S(=O)(=O)N(C)C)cc1 | active: 7.08 µM | – |
| Cc1[nH]n(-c2ccccc2)c(=O)c1/C=N/O | – | inactive: 5.22% |
| CCOc1ccc(Cn2nnc(C(=O)NCc3ccccc3)c2N)cc1 | – | inactive: -9.7% |
| O=C(c1ccc2c(c1)OCCO2)C1CCN(S(=O)(=O)c2ccccc2F)CC1 | inconclusive [inhibitor, partial curve, poor fit] | – |
| COC(=O)c1ccc(NC(=O)CN2CCN(c3ccc(Cl)cc3)CC2)cc1 | active: 22.4 µM | – |
| O=C(CSc1nnc(-c2cccnc2)s1)Nc1cccc(C(=O)O)c1 | – | inactive: -4.91% |
| O=C1Cc2ccccc2Sc2c(OCCN3CCCCC3)cccc21 | inconclusive [inhibitor, single point] | – |
| C[C@@H]1CC[C@]2(O[C@@H](CCO)C[C@H](O)[C@H]2O)O1 | – | inactive: -4.09% |
| CC(C)Sc1nnc(CNC(=O)C23CC4CC(CC(C4)C2)C3)n1Cc1ccccc1 | – | inactive: -2.91% |
| CCCCCCOC(=O)C(C#N)c1nc2ccccc2nc1N1CCN(C)CC1 (centres undefined) | inconclusive [inhibitor, single point] | – |
| COC(=O)c1cc(-c2ccc(Cl)cc2)n[nH]1 | – | inactive: 0.736% |
| Cc1nc(C)c(C(=O)C2=C(O)C(=O)N(CCN3CCOCC3)C2c2cccnc2)s1 (centres undefined) | – | inactive: -3.29% |
| O=C(CCl)NCc1c(Cl)cccc1-n1cccc1 | active: 28.2 µM | – |
| CCSc1nnc(NS(=O)(=O)c2ccc(OC)cc2)s1 | inconclusive [inhibitor, partial curve] | – |
| CCn1c2ccccc2c2cc(/C=N/NC(=O)c3ccncc3)ccc21 | inconclusive [inhibitor, single point] | – |
| O=C1N=C(N2CCCCC2)SC1=C1CCCC1 | inconclusive [inhibitor, single point] | – |
| Cc1csc2ncc(C(=O)NCc3ccccn3)c(=O)n12 | inconclusive [inhibitor, partial curve] | – |
| CNCc1nc2ccccc2[nH]1 | – | inactive: 0.706% |
| COc1ccc(C(N)=S)cc1 | – | inactive: -3.66% |
| CCCOc1ccc(N2C(=O)CC(N3CCN(C(=O)c4ccco4)CC3)C2=O)cc1 (centres undefined) | inconclusive [inhibitor, single point] | – |
| CCOC(=O)CSc1nnc2n1C(C)(C)Cc1ccccc1-2 | – | inactive: 11.2% |
| N=c1c[n+](-c2ccc(Cl)cc2)[n-]o1 | inconclusive [inhibitor, partial curve] | – |
